PubChem BioAssay AID686970 (National Center for Advancing Translational Sciences (NCATS), 2013)
About 6,000 (1.7%) of roughly 360,000 compounds were called active. This list was built around the results that the source calls inconclusive (neither active nor inactive); the mix of calls is not that of the screen. The call rests on the fitted dose curve; in most records, active means well fitted cell-killing curve with a large enough effect; inconclusive means small, poorly fitted or top-dose-only effect, or effect the other way; inactive means flat fitted curve, though single readings scatter. Potencies of inconclusive entries are left out as doubtful fits. The source holds several records for some structures; these can differ, active in one and inactive in another.

Experiment: qHTS for induction of synthetic lethality in tumor cells producing 2HG: qHTS for the HT-1080-NT fibrosarcoma cell line;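 further: NT is the 2HG producing partner of a matched IDH1 knockdown line; nearly all actives have a fitted effect of over 55% in size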;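 on activity, negative = less viability: 0% = DMSO-treated cells and -100% = media-only wells without cells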
Conditions: HT-1080-NT fibrosarcoma viability, CellTiter-Glo ATP luminescence, 48 h; activity, negative = less viability: at 46.1 µM (top of the series) unless noted
In short: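 Read-out is CellTiter-Glo luminescence after 10 minutes at room temperature, following 48 hours' compound treatment of HT-1080-NT cells (750 cells/well, RPMI, 5% FBS, 37 degrees C).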
Potency means the concentration at half of the fitted maximal effect; tags describe the fitted curve by direction and shape.

Row | SMILES | Potency | activity, negative = less viability
1 | COc1ccc(NC(=O)C(c2ccc(OC)cc2)n2c(=O)c(-c3cc4ccccc4[nH]3)nc3ccccc32)cc1 (configuration not stated) | inconclusive [cytotoxic, partial curve] | 
2 | COc1ccc(-c2cc3c(c4c2ccn4C)C2CCC3C2)cc1OC (configuration not stated) | inconclusive [cytotoxic, single point] | 
3 | O=C(NCC(c1ccc(F)cc1)N1CCOCC1)c1cc(F)c(F)c(F)c1F (configuration not stated) | inconclusive [cytotoxic, single point] | 
4 | CCCc1nc2c(C)cc(Br)cn2c1Cc1ccc(OC)cc1C | inconclusive [cytotoxic, single point] | 
5 | CCCCS(=O)(=O)N1CCCC(C(=O)NCC2CCCO2)C1 (configuration not stated) | inactive | 
6 | CCOc1cccc(C(=O)Nc2ccncc2)c1 | inconclusive [cytotoxic, partial curve] | 
7 | N#Cc1cccc(C#N)c1NCC1CCCO1 (configuration not stated) |  | inconclusive: 30.2%
8 | CCCNC(=O)C1(C)CCN(Cc2ccc(Oc3ccccc3)cc2)C1 (configuration not stated) | inconclusive [cytotoxic, single point] | 
9 | CCOc1ccc(OCC(O)CNC2CCN(Cc3ccccc3)CC2)cc1 (configuration not stated) | inconclusive [cytotoxic, partial curve] | 
10 | O=C(N/N=C\c1c(O)ccc2ccccc12)c1cncc(Br)c1 | inconclusive [cytotoxic, single point] | 
11 | O=C(NCCN1CCN(C(=O)c2ccc(F)cc2)CC1)C(=O)NCc1ccccc1 | inactive | 
12 | NS(=O)(=O)c1ccc(NC(=S)Nc2ccc(Br)c(Cl)c2)cc1 | inconclusive [cytotoxic, partial curve] | 
13 | CCCNC(=S)N1CCN(c2nc(C)nc3sc4c(c23)CCCC4)CC1 | inactive | 
14 | CCOC(=O)c1c(NC(C)=O)sc2c(O)c(CN3CCN(CC)CC3)ccc12 | inconclusive [cytotoxic, single point] | 
15 | CCN1C(=O)CSC1=Nc1cccc(C(=O)O)c1 | inactive | 
16 | C=CC[N+]1(CC(=O)NCc2ccc(NC(C)=O)cc2)CCOCC1 | inactive | 
17 | S=C(Nc1ccc(Cl)cc1Cl)NC1CCCCC1 | inconclusive [cytotoxic, single point] | 
18 | CN1CCN(CCCN2c3ccccc3Sc3ccc(Cl)cc32)CC1 | active: 14.6 µM | 
19 | CC1CCN(C(=O)CN2C(=O)C(=O)N(C(C)C)C2=O)c2ccccc2S1 (configuration not stated) | inactive | 
20 | Cc1ccc(Cl)cc1-c1cc(C(=O)NCc2ccccc2)[nH]n1 | inconclusive [rising, full curve, poor fit] | 
21 | COc1ccc(OCc2cc(/C=N\NC(=O)c3ccccc3)ccc2OC)cc1 | active: 6.51 µM | 
22 | CC1(C(=O)NS(=O)(=O)c2ccc3ccccc3c2)CCN1C(=O)C1(c2ccc(Cl)cc2)CCC1 (configuration not stated) |  | inconclusive: 23.4%
23 | CC(=O)N1N=C(c2ccccc2)OC1c1ccc([N+](=O)[O-])s1 (configuration not stated) | inconclusive [cytotoxic, single point] | 
24 | CC(NCC(O)COc1ccc(Br)cc1)c1ccccc1 (configuration not stated) | inconclusive [cytotoxic, single point] | 

Row | SMILES | Potency | activity, negative = less viability
25 | Cc1cccc(C)c1Cn1c(C)c(C(=O)NCc2ccc([N+](=O)[O-])cc2)sc1=O | inconclusive [cytotoxic, partial curve] | 
26 | CCCn1c2c(c(=N)c3c1CCC3)CCC2 | inconclusive [cytotoxic, full curve] | 
27 | COc1ccc(C(=S)N2CCOCC2)cc1OC(=O)c1ccccc1Cl | inactive | 
28 | Cc1ccccc1-c1cnc(C(O)c2ccc(-c3ccccc3)cc2)[nH]1 (configuration not stated) | inconclusive [cytotoxic, single point] | 
29 | CCOC(=O)c1ccc(Nc2cc(C)nc(N3CCOCC3)n2)cc1 | inconclusive [cytotoxic, partial curve] | 
30 | C=CCOC(=O)C1=C[C@@H](c2ccccc2)[C@H](CCCO)[C@@H](OCC)O1 | inconclusive [cytotoxic, single point] | 
31 | C=C1[C@@H](O)[C@H](CC(C)C)N(Cc2ccccc2Br)S1(=O)=O | active: 23.1 µM | 
32 | NC(=O)c1ccsc1NC(=O)COC(=O)c1c(F)cccc1Cl |  | inactive: -3.08% [at 9.24 µM]
33 | COc1ccc(C(CNC(=O)c2ccc(-c3ccccc3Cl)o2)N2CCCC2)cc1 (configuration not stated) | inconclusive [cytotoxic, single point] | 
34 | O=C(Cc1ccccc1)NNc1c2ccccc2nc2ccccc12 | inactive | 
35 | CC(=O)Nc1ccc(N/C=C/C(=O)c2ccc(C)o2)cc1 | inactive | 
36 | CC(C)CCNc1c(-c2cccs2)nc2ccccn12 | inactive | 
37 | CN1CCN(C2=C(NS(=O)(=O)c3cccs3)C(=O)c3ccccc3C2=O)CC1 | inconclusive [cytotoxic, single point] | 
38 | CC(=O)N1CCN(c2ccc(NC(=O)c3ccc([N+](=O)[O-])o3)cc2Cl)CC1 | active: 3.26 µM | 
39 | CCC(c1nnnn1CCc1ccccc1)N(Cc1ccco1)Cc1cc2cc(C)cc(C)c2[nH]c1=O (configuration not stated) | inactive | 
40 | Cc1[nH]c2ccc(F)cc2c1CCN(Cc1cccnc1)C(=S)Nc1ccccc1 | inactive | 
41 | O=C(O)c1ccc(/C=N/Nc2ccc(F)cc2F)cc1 | active: 3.26 µM | 
42 | C/C(=N\Nc1nc2ccccc2s1)c1ccc(Br)s1 | inconclusive [cytotoxic, single point] | 
43 | O=[N+]([O-])c1ccc(Sc2nnnn2-c2ccccc2)c(Cl)c1 | active: 8.91 µM | 
44 | Cc1ccc(N=C2NC(=O)/C(=C/c3cccnc3)S2)c(C)c1 | inconclusive [cytotoxic, partial curve] | 
45 | O=[N+]([O-])c1ccc(Oc2cccc(C(F)(F)F)c2)nc1 | inactive | 
46 | CC(=O)Nc1nc(CCN2C(=O)c3ccccc3C2=O)cs1 | inconclusive [rising, partial curve] | 
47 | CC(C)C[C@@H](CN1CCC[C@H]1CN1C(=O)C(=O)NC[C@@H]1Cc1ccccc1)N1C[C@H](Cc2ccc(O)cc2)N(CCc2ccccc2)C(=O)C1=O | inconclusive [cytotoxic, single point] | 
